The RNAGym collection of RNA variant scans (doi:10.1101/gad.245936.114)
Variants at the floor of the assay are shown more often than the library holds them.

B1: tRNA (parent)
chain: CUCUCGGUAGCCAAGUUGGUUUAAGGCGCAAGACUUUAAUUUAUCACUACGAAAUCUUGAGAUCGGGCGUUCGACUCGCCCCCGGGAGAUUUUUUCCUCGAGCAA

Variants of: B1
Assay: nonsense suppression (GFP-seq) (ratio to wild type); higher = more function; SUP4oc tRNA, yeast GFP reporter sort-seq
Outline: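 Each variant's nonsense suppression (GFPSEQ) is a cell-share-weighted bin median GFP/RFP relative to the unmutated parent tRNA. Yeast with genome-integrated tRNA variants from a ~3% random-mutation library, a galactose-driven GFP ochre reporter and RFP were grown in raffinose/galactose medium with 80 mg/L adenine, then sorted into GFP/RFP bins for Illumina sequencing. Variants needed ≥100 reads and ≥30 cells.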

Variant	nonsense suppression
G7C A89U	≤ 0.026
G7C C11A	≤ 0.026
G7C C11A U21G A24U U57C C77G C83A	≤ 0.026
G7C C11A U21G A24U U57C C77U C83A	≤ 0.026
G7C C12A G66A C75A C82U	≤ 0.026
G7C C27A U57A C77G	≤ 0.026
G7C C27U	≤ 0.026
G7C C27U U55C A87G	≤ 0.026
G7C C29A G61U G65C G84A	≤ 0.026
G7C C29U G73A	≤ 0.026
G7C C56G	≤ 0.026
G7C C72U	≤ 0.026
G7C C80U	≤ 0.026
G7C C83G	≤ 0.026
G7C G10A C68G	≤ 0.026
G7C G10C G25C A62C U76G	≤ 0.026
G7C G10C G84A	≤ 0.026
G7C G10U G28C C56U A62C	≤ 0.026
G7C G10U U21C U58G U71A C75A	≤ 0.026
G7C G15C G26C A62C C81G	≤ 0.026
G7C G15U G84A	≤ 0.026
G7C G18C G65A	≤ 0.026
G7C G18U G69C C83G	≤ 0.026
G7C G25C	≤ 0.026

Variant	nonsense suppression
G7C G25C G28U A60G	≤ 0.026
G7C G25U A31G G86C	≤ 0.026
G7C G25U A31U	≤ 0.026
G7C G26A A30G	≤ 0.026
G7C G26A G78A	≤ 0.026
G7C G26C C27A	≤ 0.026
G7C G28U C77A	≤ 0.026
G7C G32C U57G	≤ 0.026
G7C G59A	≤ 0.026
G7C G59A U63G G73A	≤ 0.026
G7C G59C G61C A87G	≤ 0.026
G7C G65U	≤ 0.026
G7C G66A	≤ 0.026
G7C G73A	≤ 0.026
G7C G78A	≤ 0.026
G7C G86U	≤ 0.026
G7C U8A	≤ 0.026
G7C U8A A14U A33C	≤ 0.026
G7C U8A U22C G25U	≤ 0.026
G7C U8C U20C	≤ 0.026
G7C U8G U17G A23C A24U G67A G84A	≤ 0.026
G7C U17C A74G	≤ 0.026
G7C U20A A54C G69C	≤ 0.026
G7C U20C A60C U71A	≤ 0.026

Variant	nonsense suppression
G7C U20G G67A	≤ 0.026
G7C U21A A24G C56G U71C C79G	≤ 0.026
G7C U21C C29U U57A	≤ 0.026
G7C U21G	0.0521
G7C U55C G86U	≤ 0.026
G7C U55G C79G	≤ 0.026
G7C U57A	≤ 0.026
G7C U58A C64A U71G	≤ 0.026
G7C U70C	≤ 0.026
G7U A9C C77A	≤ 0.026
G7U A9C U16C U57C	≤ 0.026
G7U A9C U63G	≤ 0.026
G7U A9C U70C G73U	≤ 0.026
G7U A9U U35A C75G C79A	≤ 0.026
G7U A13C G69U A74C	≤ 0.026
G7U A13G G19U U58A	≤ 0.026
G7U A14C G61C G88C	≤ 0.026
G7U A14U A24G U35G A60U G69U U70A	≤ 0.026
G7U A23G C82A	≤ 0.026
G7U A23U G25A U57C U58C	≤ 0.026
G7U A24C G67A	≤ 0.026
G7U A24C G67A C82G	≤ 0.026
G7U A24G A33U G61A	≤ 0.026
G7U A24U G86U	≤ 0.026

Variant	nonsense suppression
G7U A30C U71C A74G	≤ 0.026
G7U A30G	≤ 0.026
G7U A31C U55A G65A G86C	≤ 0.026
G7U A31U	≤ 0.026
G7U A33C C75G	≤ 0.026
G7U A33G A60G C72G	≤ 0.026
G7U A33G C80U	≤ 0.026
G7U A33G U76C	≤ 0.026
G7U A60U C64A G73C G78C	≤ 0.026
G7U A74G	≤ 0.026
G7U A74G U76G	≤ 0.026
G7U A87U	≤ 0.026
G7U C11A	≤ 0.026
G7U C11A G15U A24G G86C	≤ 0.026
G7U C11A G69C G84A	≤ 0.026
G7U C11A U21A A23C	≤ 0.026
G7U C12G A24U U55G	≤ 0.026
G7U C12G G19U G67U	≤ 0.026
G7U C12U	≤ 0.026
G7U C12U C64G C72G	≤ 0.026
G7U C12U G18U G26C C34U	≤ 0.026
G7U C12U G65C	≤ 0.026
G7U C27G G65A	≤ 0.026
G7U C27U U35A A74C	≤ 0.026

Variant	nonsense suppression
G7U C29G G69U	≤ 0.026
G7U C29U A33G	≤ 0.026
G7U C29U G86C	≤ 0.026
G7U C34A	≤ 0.026
G7U C34A A60C G65A G66U G85C	≤ 0.026
G7U C34U	≤ 0.026
G7U C34U U57G	≤ 0.026
G7U C64U	≤ 0.026
G7U C68A C75U	≤ 0.026
G7U C80A	≤ 0.026
G7U C82G	≤ 0.026
G7U G10A G85C	≤ 0.026
G7U G15C A23G U55G U57A	≤ 0.026
G7U G15C U76G	≤ 0.026
G7U G15U	≤ 0.026
G7U G15U G84U A87C	≤ 0.026
G7U G18A	≤ 0.026
G7U G18A U21G A24G A54U G65A U70C	≤ 0.026
G7U G18C A30G	≤ 0.026
G7U G19U	≤ 0.026
G7U G26A G67A G73C	≤ 0.026
G7U G28C	≤ 0.026
G7U G28U U57G	≤ 0.026
G7U G32A A60C A74G	≤ 0.026

Variant	nonsense suppression
G7U G32C	≤ 0.026
G7U G32C A74G	≤ 0.026
G7U G59U U71C	≤ 0.026
G7U G65A U76A	≤ 0.026
G7U G65U	≤ 0.026
G7U G66A G67A G85C	≤ 0.026
G7U G66U C81A	≤ 0.026
G7U G69U	≤ 0.026
G7U G85U	≤ 0.026
G7U G86C	≤ 0.026
G7U U8A A24U C34A G59U G69C	≤ 0.026
G7U U8A G66U C80A G86U	≤ 0.026
G7U U8G G67U C68A U76G	≤ 0.026
G7U U16A A33G A60C	≤ 0.026
G7U U16C	≤ 0.026
G7U U16G G18C	≤ 0.026
G7U U16G G85U	≤ 0.026
G7U U16G U57A G78U G86C	≤ 0.026
G7U U17A C79A	≤ 0.026
G7U U17A U20C A23G A31G A87G	≤ 0.026
G7U U17A U22C C77A	≤ 0.026
G7U U17C C34G	≤ 0.026
G7U U17G A74G A89C	≤ 0.026
G7U U17G U70G C80A	≤ 0.026

Variant	nonsense suppression
G7U U21G G88C	≤ 0.026
G7U U22G C64U	≤ 0.026
G7U U35A	≤ 0.026
G7U U55A C68G	≤ 0.026
G7U U55C C56G	≤ 0.026
G7U U55C C68U A89C	≤ 0.026
G7U U57C C64G	≤ 0.026
G7U U63A G65U	≤ 0.026
G7U U70C	≤ 0.026
U8A A9C A30G G61A C75G	≤ 0.026
U8A A9G U58A C72G C79A	≤ 0.026
U8A A9U	≤ 0.026
U8A A9U C12A	≤ 0.026
U8A A9U C82U C83A	≤ 0.026
U8A A13C G28A C29U G65C G85U	≤ 0.026
U8A A13G G32U	≤ 0.026
U8A A13U A14G U57A U58A C68A C83A	≤ 0.026
U8A A13U A60G A74C	≤ 0.026
U8A A13U U17G G18C U57G A60C	≤ 0.026
U8A A13U U20A	≤ 0.026
U8A A14G	0.18
U8A A14U U20A A74C	≤ 0.026
U8A A23C	≤ 0.026
